Data published in the supplement of paper PMC4604168 (melanoma cell lines).
The list shows a part of the results. Many values rest on one well or one pass, so single values are uncertain.

These molecules were tested on A375 (assay: cell count relative to DMSO control; melanoma cells; higher = more viable cells). Details: library dose: standard library concentration; 72 h.
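Also: cells treated in 1,536-well plates, then fixed and DAPI-stained, with nuclei counted from automated high-throughput microscope images.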

| Compound | cell count [%] |
| --- | --- |
| N#CC[C@H](C1CCCC1)n1cc(-c2ncnc3[nH]ccc23)cn1 [ruxolitinib] + COc1ccc(Cl)c(Nc2nc3ccccc3nc2NS(=O)(=O)c2cccc(NC(=O)C(C)(C)N)c2)c1 [XL147] (first compound 5 µM, partner dose 4 µM) | 109 |
| N#CC[C@H](C1CCCC1)n1cc(-c2ncnc3[nH]ccc23)cn1 [ruxolitinib] + CC(C)C[C@H](NC(=O)[C@H](Cc1ccccc1)NC(=O)c1cnccn1)B(O)O [Bortezomib] (first compound 5 µM, partner dose 0.005 µM) | 83 |
| CC[C@]1(O)C[C@H]2CN(CCc3c([nH]c4ccccc34)[C@@](C(=O)OC)(c3cc4c(cc3OC)N(C=O)[C@H]3[C@@](O)(C(=O)OC)[C@H](OC(C)=O)[C@]5(CC)C=CCN6CC[C@]43[C@@H]65)C2)C1 [vincristine] + Cc1cc(N2CCOCC2)cc2[nH]c(-c3c(NC[C@@H](O)c4cccc(Cl)c4)cc[nH]c3=O)nc12 [BMS536924] (first compound 0.0005 µM, partner dose 1 µM) | 83.2 |
| Cc1cc(Nc2cc(N3CCN(C)CC3)nc(Sc3ccc(NC(=O)C4CC4)cc3)n2)n[nH]1 [Tozasertib] + CN(c1ncccc1CNc1nc(Nc2ccc3c(c2)CC(=O)N3)ncc1C(F)(F)F)S(C)(=O)=O [PF562271] (first compound 0.03 µM, partner dose 0.4 µM) | 63.5 |
| CC[C@]1(O)C[C@H]2CN(CCc3c([nH]c4ccccc34)[C@@](C(=O)OC)(c3cc4c(cc3OC)N(C=O)[C@H]3[C@@](O)(C(=O)OC)[C@H](OC(C)=O)[C@]5(CC)C=CCN6CC[C@]43[C@@H]65)C2)C1 [vincristine] + C[C@@H](Oc1cc(-c2cnn(C3CCNCC3)c2)cnc1N)c1c(Cl)ccc(F)c1Cl [Crizotinib] (first compound 0.0005 µM, partner dose 1 µM) | 107 |
